{
  "source": "PubChem BioAssay AID1345083",
  "about": "(National Center for Advancing Translational Sciences (NCATS), 2018)",
  "note": "In all, about 94,000 compounds went through this assay and about 6,200 (6.6%) were called active. The shares of active, inactive and inconclusive entries below differ from those in the screen. Calls follow the shape of the dose curve; as a rule, active = well fitted inhibition curve with a large enough effect; inconclusive = small, poorly fitted or top-dose-only effect; inactive = flat fitted curve, though single readings scatter. Where the call is inconclusive, the potency comes from a doubtful curve fit. % is scaled to controls: 0 for no effect and ±100 for the full control effect; potency is read from the fitted curve at half-maximal effect; tags tell the direction and shape of the fitted curve.",
  "data": [
    {"assay": "Cytotoxic Profiling in HEK 293 Cell Line of Diverse Libraries Using Quantitative High-Throughput Screening; also: nearly all actives have a fitted effect of over 60% in size", "details": "HEK 293 viability, ATP luminescence (CellTiter-Glo), 48-72 h; activity change, negative = cytotoxicity: at 115 µM (top of the series) unless noted; series mostly up to 115 µM", "in_short": "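Read-out: CellTiter-Glo ATP luminescence. Cells: HEK 293, 250 cells/well. Exposure: 48 or 72 hr, 37 degree Celsius.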", "values": [
      {"compound": "COc1ccc(-c2cccc(C(=O)N3CCC(C#N)CC3)c2)nn1", "Potency": "inconclusive: 89.1 µM [inhibitor, single point]"},
      {"compound": "O=C(CN1C(=O)NC2(CCCCC2)C1=O)Nc1ccc(F)c(Cl)c1", "Potency": "inconclusive: 79.4 µM [inhibitor, partial curve, poor fit]"},
      {"compound": "CC(=O)N1CCC2(CC1)CN(C(=O)c1ccc3[nH]ccc3c1)Cc1ccccc1O2", "activity change, negative = cytotoxicity": "inactive: -16.1%"},
      {"compound": "CC1(C(=O)NCc2cccc(F)c2)CCCc2cnc(Nc3cccnc3)nc21", "note": "(stereo not drawn)", "Potency": "inconclusive: 100 µM [inhibitor, partial curve]"},
      {"compound": "COc1ccccc1C(=O)N1CCCCC1c1noc(COc2ccc(C)cc2)n1", "note": "(stereo not drawn)", "Potency": "inconclusive: 50.1 µM [inhibitor, partial curve, poor fit]"},
      {"compound": "CNC(=O)c1nc2cccnc2n(Cc2ccccc2)c1=O", "activity change, negative = cytotoxicity": "inactive: -12.2% [at 172 µM]"},
      {"compound": "COc1ccc(Nc2ccnc(N3CCC(NC(=O)c4ccc(C)cc4)CC3)n2)cc1", "Potency": "inconclusive: 7.94 µM [inhibitor, partial curve, poor fit]"},
      {"compound": "O=C(O)C1CNCCN(C(=O)c2nc3ccc(F)cc3[nH]2)C1", "note": "(stereo not drawn)", "outcome": "inactive"},
      {"compound": "Cc1ccc(C)c(CN2C(=O)NC3(CCN(C(=O)c4cnccn4)CC3)C2=O)c1", "Potency": "inconclusive: 70.8 µM [inhibitor, single point]"},
      {"compound": "CC1=C(C(=O)Nc2ccccc2)C(c2cc(C)ccc2C)N2C(CC(=O)N3CCCC3)=CSC2=N1", "note": "(stereo not drawn)", "Potency": "active: 31.6 µM"},
      {"compound": "CS(=O)(=O)N1CCC(C2CCN(Cc3ccc4c(c3)CCO4)C2)CC1", "note": "(stereo not drawn)", "outcome": "inactive"},
      {"compound": "Cc1noc(C)c1-c1cccc(CCOc2cnc3c(ccn3CC(=O)O)c2)c1", "Potency": "inconclusive: 100 µM [inhibitor, partial curve, poor fit]"},
      {"compound": "CCOC(=O)C1(Cc2cccc(C(F)(F)F)c2)CCN(Cc2ccc(COC)o2)CC1", "Potency": "inconclusive: 17.8 µM [inhibitor, full curve, poor fit]"},
      {"compound": "Fc1cccc(Nc2nc(-c3ccccc3)no2)c1", "Potency": "inconclusive: 50.1 µM [inhibitor, partial curve, poor fit]"},
      {"compound": "O=C(c1cnccn1)N1CCC2(CC1)NCCc1c2[nH]c2ccccc12", "activity change, negative = cytotoxicity": "inactive: -18.4%"},
      {"compound": "COc1ccc2[nH]c(=O)c(CCC(=O)NCCN3CCCCCC3)cc2c1", "activity change, negative = cytotoxicity": "inactive: 0.739%"},
      {"compound": "Cc1ccc(-c2cc3c(=O)n(CCNC(=O)c4cccc5[nH]ccc45)ccn3n2)cc1C", "Potency": "active: 35.5 µM"},
      {"compound": "CCCN(C)C(=O)c1c(-c2ccccc2)noc1[C@H](C)O", "activity change, negative = cytotoxicity": "inactive: -13.5% [at 230 µM]"},
      {"compound": "COc1ccc(C2=NOC3(CCN([S+](=O)([O-])c4ccccc4)C3)C2)cc1", "note": "(stereo not drawn)", "Potency": "active: 44.7 µM"},
      {"compound": "c1cc(-c2cc(-c3cn[nH]c3)c3cncn3c2)cc(N2CCOCC2)c1", "Potency": "inconclusive: 44.7 µM [inhibitor, partial curve, poor fit]"},
      {"compound": "O=c1cc(-c2ccncc2)oc2c(-c3cccc(CO)c3)nccc12", "activity change, negative = cytotoxicity": "inactive: -25.7% [at 172 µM]"},
      {"compound": "O=C(NC1CC1)c1nc(-c2ccc(F)cc2)c2cnccn12", "Potency": "inconclusive: 89.1 µM [inhibitor, partial curve, poor fit]"},
      {"compound": "O=C(NC1CCCC1)NC1CCN(c2ccc3nnc(-c4ccccc4)n3n2)C1", "note": "(stereo not drawn)", "Potency": "inconclusive: 89.1 µM [inhibitor, single point]"},
      {"compound": "CN(Cc1nc(Cc2ccccc2Cl)no1)Cc1cccc2cnccc12", "Potency": "inconclusive: 35.5 µM [inhibitor, full curve]"},
      {"compound": "COc1cc(C(=O)N2CCC[C@H]2c2nc(-c3ccc(F)cc3)no2)cc(OC)c1OC", "Potency": "inconclusive: 89.1 µM [inhibitor, single point]"},
      {"compound": "C[C@@]12C(=O)N(CC3CC3)c3ccccc3[C@@H]1[C@@H](C(N)=O)CN2C(=O)Nc1ccc2c(c1)OCO2", "Potency": "inconclusive: 39.8 µM [inhibitor, single point]"},
      {"compound": "COc1cccc([S+](=O)([O-])N2CCC3(C2)C(=O)N(C)c2ccccc23)c1", "note": "(stereo not drawn)", "Potency": "inconclusive: 56.2 µM [inhibitor, partial curve, poor fit]"},
      {"compound": "CCn1ccnc1C1CCN(C(=O)CC2NC(=O)NC2=O)CC1", "note": "(stereo not drawn)", "Potency": "inconclusive: 89.1 µM [inhibitor, single point]"},
      {"compound": "COc1ccc(OC2CN(Cc3ccnn3C)C2)cc1", "activity change, negative = cytotoxicity": "inactive: -1.48% [at 172 µM]"},
      {"compound": "CCc1ccccc1NC(=O)COc1ccc(NC(=O)C2CC2)cn1", "activity change, negative = cytotoxicity": "inactive: -6.22%"},
      {"compound": "COCCN(Cc1ccccc1F)Cc1cc2c(cc1OC)OCO2", "Potency": "inconclusive: 70.8 µM [inhibitor, single point]"},
      {"compound": "COc1ccc(CN2Cc3[nH]cnc3C[C@H]2C(=O)N(C)Cc2ccccc2)c2ccccc12", "Potency": "active: 39.8 µM"},
      {"compound": "CC1=C[C@@H](CN2CCN(CCO)CC2)[C@H](C(C)C)C[C@H]1Cc1nnc(Cc2c[nH]c3ccccc23)o1", "Potency": "inconclusive: 50.1 µM [inhibitor, partial curve, poor fit]"}
    ]}
  ]
}
